From paper PMC9574860, “Chemical Toolkit for PARK7: Potent, Selective, and High-Throughput” (Journal of Medicinal Chemistry, 2022) come the findings set out here.

Hit rate of the full screen: of about 7,900 compounds, about 400 (5.1%) showed an effect of 50% or more. The list shows a part of the results.

In the test the target is Parkinson's disease protein 7 (PARK7/DJ1) (human, UniProt Q99497). Kind of test: primary screen, percent inhibition; read as competition with a fluorescent probe by fluorescence polarization; higher = more effect of the substance. Conditions: 100 µM. The gist of the method: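 Covalent fragments at 100 μM final were incubated 2 h with 0.2 μM PARK7, then 20 nM probe JYQ-107 added for a further 2 h. Fluorescence polarization read at 480/520 nm; relative FP loss versus reference controls gave remaining enzyme activity.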
Sequence of Parkinson's disease protein 7 (PARK7/DJ1) (Q99497 whole entry, looked up, the tested form may be a part): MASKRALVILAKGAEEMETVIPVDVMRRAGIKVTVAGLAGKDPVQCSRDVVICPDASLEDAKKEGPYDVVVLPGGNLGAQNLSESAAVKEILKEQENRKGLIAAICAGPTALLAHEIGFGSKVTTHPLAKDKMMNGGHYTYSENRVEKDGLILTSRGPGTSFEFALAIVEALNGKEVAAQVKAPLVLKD
Turning to `CCc1nccn1S(=O)(=O)c1ccc(Cl)c(Cl)c1`, the Inhibition % was 8.82%.

Take `Cc1occc1Sc1nccnc1C#N`: the Inhibition % was 7.12%.

For `COc1ccc(CN(C)C(=O)c2cccnc2S)cc1O`, the Inhibition % came to 19.7%.

In the case of `CC1(C)OB(c2cccc(CN)c2)OC1(C)C.Cl`, the Inhibition % worked out at 2.79%.

For `C=CC(=O)Nc1ccccc1C(=O)OC`, the Inhibition % was 7.6%.

As for `CCc1nc(C)cn1S(=O)(=O)c1cc(Cl)ccc1OC`, the Inhibition % is reported as 5.69%.

With `N#Cc1nc(Cl)ccc1C(F)(F)F`, the Inhibition % is recorded as 5.75%.

Regarding `COc1ccc2[nH]c(CCCCl)nc2n1.Cl`, the Inhibition % is 23.2%.

On to `O=C1CN(C(=O)C=Cc2c(Cl)nc3sccn23)CCN1`, for which the Inhibition % is recorded as 10.3%.

As for `O=C(CCl)Nc1ccc(N2CCc3ccccc32)cc1`, the Inhibition % turned out to be 6.97%.

As to `Sc1ccc2ccccc2n1`, the Inhibition % was found to be 14.2%.

As to `COC(=O)c1cccc(F)c1B1OC(C)(C)C(C)(C)O1`, the Inhibition % is given as 4.22%.

As for `N#Cc1nc(Cc2ccccc2)oc1N1CCCC1`, the Inhibition % came to 0.891%.

In the case of `O=C1SCCN1CC(=O)N1CCCCc2ccccc21`, the Inhibition % amounted to 4.59%.

With `COc1cccc2cc(C=CC(=O)N3CCOCC3)oc12`, the Inhibition % was found to be 4.01%.

`C=CC(=O)N1CCCC1c1cn(C)nc1C` (centres unmarked): the Inhibition % came out at 8.23%.

For the compound `C=CC(=O)N1CCC(CC(C)(C)C)C1` (centres unmarked), the Inhibition % stood at 8.14%.

Take `O=C(CCl)Nc1ccc(SC(F)F)cc1`: the Inhibition % came to 100%.

For the compound `C=CC(=O)N(CC1CCCO1)C1CCSC1` (centres unmarked), the Inhibition % worked out at 10.6%.

Regarding `C=CC(=O)Nc1cnn(Cc2nnc3n2CCCC3)c1`, the Inhibition % was 14.9%.

`Cc1nn(C)c(C)c1C=C(C#N)c1ccccn1`: the Inhibition % is recorded as 10.7%.

Regarding `c1csc(COCC2CO2)c1` (centres unmarked), the Inhibition % came to 0.211%.

For `Cc1cc(NS(=O)(=O)C=Cc2ccccc2)ccn1`, the Inhibition % was found to be 29.4%.

For `OB1OCc2cc(Cl)ccc21`, the Inhibition % is on record as 5.69%.

As for `C=CC(=O)Nc1cccc2c1OCO2`, the Inhibition % is 2.99%.

Take `Cc1c(CCNC(=O)c2cccnc2S)cnn1C`: the Inhibition % is 6.16%.

In the case of `N#Cc1ncccc1F`, the Inhibition % is 6.29%.

For the compound `CC(=O)Nc1ccc(NC2SC(=O)NC2=O)cc1` (centres unmarked), the Inhibition % was 66.6%.

With `CN(C(=O)CCl)c1ccc([N+](=O)[O-])cc1`, the Inhibition % was determined as 93.5%.

On to `Cn1cc(C=C(C#N)c2ccccn2)cn1`, for which the Inhibition % is 6.78%.

For the compound `C=CC(=O)NC(C)c1csc(C2CC2)n1` (centres unmarked), the Inhibition % amounted to 7.23%.

Consider `CC(O)(CNc1ccc(C#N)nc1)c1ccccc1Cl` (centres unmarked), for which the Inhibition % worked out at 7.88%.

Regarding `O=C(Nc1ccc(F)cc1)N1CCCC(C2OCCO2)C1` (centres unmarked), the Inhibition % was 9.05%.

For `Cc1ccc2nc(S)n(C)c(=O)c2c1`, the Inhibition % is given as 3.43%.

Regarding `CC1(C)OB(c2cnc3[nH]ccc3c2)OC1(C)C`, the Inhibition % was found to be 7.34%.

For the compound `COC(=O)c1ccc(B2OC(C)(C)C(C)(C)O2)o1`, the Inhibition % was 4.29%.

Take `CN1CCC(NC(=O)CCl)CC1`: the Inhibition % was 4.68%.

As for `Cc1cc(NC2CC(C)OC2=O)nn1C` (centres unmarked), the Inhibition % was found to be 12.3%.

For `O=S(=O)(F)CCn1ncc(Cl)c1C1CC1`, the Inhibition % turned out to be 14.9%.

Turning to `CC1Oc2ccccc2N(CCn2ccnc2C#N)C1=O` (centres unmarked), the Inhibition % is 19.7%.

As to `C=CC(=O)NC1CCCN(S(C)(=O)=O)C1` (centres unmarked), the Inhibition % is listed as 5.94%.

`CN(C(=O)CCl)C1CCCCC1`: the Inhibition % is 92.5%.

With `CSc1nnc(C#N)s1`, the Inhibition % worked out at 6.56%.

In the case of `Cc1cc(C)n(CCCCl)n1`, the Inhibition % amounted to 5.02%.

For `CCC(=O)N1CCCC1C1CCCN1C1CCOC1=O` (centres unmarked), the Inhibition % worked out at 8.79%.

For the compound `O=C(CCCl)NC1CCCCC1`, the Inhibition % came to 3.8%.

As for `CC(C)(C)OC(=O)N1CCC(B2OC(C)(C)C(C)(C)O2)=CC1=O`, the Inhibition % is 15.2%.

As for `Cc1cc(S(=O)(=O)n2ccnc2C)ccc1Cl`, the Inhibition % is given as 2.45%.

As for `CC(C)n1nccc1NS(=O)(=O)C=Cc1ccccc1`, the Inhibition % was 11.2%.

For the compound `OB(O)c1ccc(C2CC2)cc1F`, the Inhibition % is -1.81%.

With `CCn1nccc1B1OC(C)(C)C(C)(C)O1`, the Inhibition % worked out at 7.49%.

Consider `N#Cc1ccc(N2CCCC(F)C2)cn1` (centres unmarked), for which the Inhibition % was found to be 3.27%.

`C=CC(=O)Nc1nc2cccnc2n1CC`: the Inhibition % came to 9.09%.

`CC1(c2ccccc2F)CNC1=O` (centres unmarked): the Inhibition % was -1.9%.

In the case of `CCOc1ccc(Cl)cc1S(=O)(=O)n1cccn1`, the Inhibition % is listed as -1.82%.

`ClCCc1cscn1`: the Inhibition % is recorded as 5.31%.

Take `O=C1CC2(CCN(C(=O)OCc3ccccc3)CC2)N1`: the Inhibition % amounted to 2.87%.

For `O=C(CCl)N(Cc1cccs1)C1CC1`, the Inhibition % was determined as 2.18%.

As to `OB(O)c1cccc(OCCN2CCCCC2)c1`, the Inhibition % is on record as 9.09%.

As for `C=CC(=O)N1CCS(=O)(=O)C(C)C1C` (centres unmarked), the Inhibition % is listed as 7.37%.

In the case of `Sc1nc(NC2CC2)c2ccccc2n1`, the Inhibition % turned out to be 7.62%.

Regarding `CC1CCC2(CC1)NC(=O)N(NC(=O)CCl)C2=O` (centres unmarked), the Inhibition % was found to be 9.61%.

Take `O=S(=O)(F)c1ccc(S(=O)(=O)Nc2ccncc2)cc1`: the Inhibition % turned out to be 8.89%.

`C=CC(=O)N1CCCC(CC2CCOC2)C1` (centres unmarked): the Inhibition % amounted to 7.3%.

Regarding `C=CC(=O)N1CCCN(c2nc(CC)ns2)CC1`, the Inhibition % is listed as 4.09%.

On to `C=CC(=O)N1CCN(C(=O)C2CCCN2C)CC1` (centres unmarked), for which the Inhibition % came to 12.4%.

Turning to `COc1ccc(CNc2oc(C)nc2C#N)cc1`, the Inhibition % is reported as 6.66%.

In the case of `CC1(C)OB(c2ccc3c(c2)COCC(=O)N3)OC1(C)C`, the Inhibition % is 2.89%.

With `CC(C(=O)O)N1C(=O)CSC1=O` (centres unmarked), the Inhibition % stood at 13.7%.

Take `C=CC(=O)NCc1ccc(-c2csc(C)n2)o1`: the Inhibition % stood at 0.857%.

`C=CC(=O)N1CCc2ccc(Cl)cc2C1`: the Inhibition % is reported as 3.77%.

For `CC1(C)OB(c2cnc(N3CCC(O)CC3)nc2)OC1(C)C`, the Inhibition % was found to be 2.94%.

For the compound `CCn1cc(C2NC(=O)C23CCOCC3)cn1` (centres unmarked), the Inhibition % amounted to 2.01%.

Regarding `N#Cc1ccc(N2CCc3sccc3C2)cn1`, the Inhibition % is reported as 27.1%.

For the compound `Cc1cc(C)n(CC(C)Nc2ccc(Cl)c(C#N)n2)n1` (centres unmarked), the Inhibition % stood at 6.01%.

Turning to `O=C(CCl)Nc1cc(Cl)ccc1-n1cncn1`, the Inhibition % worked out at 11%.

In the case of `CC1(C)OB(c2ccc(OCCS(C)(=O)=O)cc2)OC1(C)C`, the Inhibition % was -1.19%.

In the case of `O=C(CCl)NC1CCC(C(F)(F)F)CC1` (centres unmarked), the Inhibition % amounted to 8.89%.

As for `O=C1CN=C(S)N1C1CCCCCC1`, the Inhibition % is given as 5.4%.

Take `C=CC(=O)NC1CCC(=O)NC1C1CCCO1` (centres unmarked): the Inhibition % is 16.5%.

As for `N#CC(C(=O)NCc1ccccc1)=C1NCCCN1`, the Inhibition % stood at 4.85%.

For `CN(Cc1nccn1C(F)F)c1cccnc1C#N`, the Inhibition % was determined as 17.4%.

For the compound `O=C(CCl)Nc1nc2c(s1)CCCC2`, the Inhibition % was 22.8%.

`CC(Sc1nccnc1C#N)c1cccs1` (centres unmarked): the Inhibition % is given as 7.28%.

Consider `CC(C)N1CCC(Nc2ccc(C#N)nc2)C1=O` (centres unmarked), for which the Inhibition % is given as 27.9%.

As for `C=CC(=O)N1CCC(C)(N2CCOCC2)CC1`, the Inhibition % was found to be 10%.

With `COCCNC(=O)C(C#N)=Cc1cccc(O)c1`, the Inhibition % stood at 10.3%.

For `C=CC(=O)NC1CCCC2(CC2)C1` (centres unmarked), the Inhibition % is recorded as 7.63%.

As for `COc1cc(C=C(C#N)C(=O)NC(C)C)cc(OC)c1`, the Inhibition % amounted to 11.4%.

Turning to `O=C(CCl)Nc1ccccc1S(=O)(=O)C(F)F`, the Inhibition % is 6.1%.

Turning to `C=CC(=O)Nc1ccc(C)cn1`, the Inhibition % is 0.151%.

For `CC(=O)N1c2ccc(C(=O)CCl)cc2CC1C` (centres unmarked), the Inhibition % came out at 5.96%.

As to `C=CC(=O)NCc1nc2ccccc2c(=O)n1C`, the Inhibition % came out at 6.79%.

Consider `CN(Cc1ccc(Cl)c(Cl)c1)C(=O)CCl`, for which the Inhibition % is reported as 43.3%.

Take `CCCNC(=O)C(C#N)=Cc1ccc(N)nc1`: the Inhibition % is 14.7%.

As to `CC(=O)N1CCC(NS(=O)(=O)C=Cc2ccccc2)CC1`, the Inhibition % worked out at 9.02%.

For the compound `C=CC(=O)NC1CC(c2cccc(Cl)c2)C1` (centres unmarked), the Inhibition % is 5.96%.

For the compound `Cc1ccc(C(=O)O)cc1B1OC(C)(C)C(C)(C)O1`, the Inhibition % stood at 9.09%.

As to `O=C(c1ccccc1)N1CC(S(=O)(=O)F)C1`, the Inhibition % amounted to 35.6%.

As for `N#Cc1nc(Cl)sc1Cl`, the Inhibition % was 5.66%.

In the case of `O=C(Nc1cccc(S(=O)(=O)F)c1)c1ccoc1C(F)(F)F`, the Inhibition % is 96.8%.

`COc1cc(C=C(C#N)C(N)=O)cc(Cl)c1OC`: the Inhibition % is on record as -16.5%.

As for `C=CC(=O)N1CC(N2CCn3c(C)nnc3C2)C1`, the Inhibition % turned out to be 9.24%.

On to `O=C(CCl)NC12CC3CC(CC(C3)C1)C2`, for which the Inhibition % was found to be 3.94%.

On to `Clc1cc(Cl)cc(OCC2CO2)c1` (centres unmarked), for which the Inhibition % is given as 9.31%.

Take `CN(C)C(=O)Oc1cccc(-c2nnco2)c1`: the Inhibition % was 28.8%.

Regarding `O=C(CCCl)NCc1ccccc1Cl`, the Inhibition % turned out to be 4.27%.

On to `CC(CC(O)c1ccc(F)cc1)Nc1ccc(C#N)nc1` (centres unmarked), for which the Inhibition % was 9.7%.

Consider `CC1(C)OB(c2ccc(Oc3ccccc3)cc2F)OC1(C)C`, for which the Inhibition % was 8.35%.

In the case of `C=CC(=O)N1CC(C(C)C)c2ccccc21` (centres unmarked), the Inhibition % is 5.57%.

As for `C=CC(=O)Nc1ccc2c(c1)nc(C1CC1)n2C`, the Inhibition % is 28.8%.

Turning to `O=C(CCl)Nc1cccc(S(=O)(=O)N2CCCC2)c1`, the Inhibition % stood at 7.91%.

As for `N#Cc1cc(C(=O)N[C@H]2CCO[C@@H]2c2cccnc2)c[nH]1`, the Inhibition % came to 14.2%.

Turning to `N#Cc1ncn(CC(=O)N2CCCC2)n1`, the Inhibition % worked out at 5.17%.

`O=C1CCC(=O)N1CC(=O)N1CCCc2ccccc21`: the Inhibition % turned out to be 10.8%.

Consider `N#Cc1c(Cl)nc2cc(Cl)ccn12`, for which the Inhibition % was determined as 9.52%.

On to `C=CCCCOc1cccc(B2OC(C)(C)C(C)(C)O2)c1`, for which the Inhibition % is reported as 3.29%.

Regarding `C=CC(=O)N1CCC(c2ncc(Cl)cn2)CC1`, the Inhibition % is recorded as 5.57%.

`CC(=O)c1oc2ccccc2c1NC(=O)CCl`: the Inhibition % is 9.9%.

Consider `CN(Cc1ccc(Cl)s1)C(=O)CCl`, for which the Inhibition % is reported as 30.4%.

With `O=S(=O)(OCC(F)(F)F)c1cccnc1`, the Inhibition % is given as 8.17%.

Consider `C=CC(=O)NCC(=O)N1CCCO1`, for which the Inhibition % is recorded as 4.97%.

`C=CC(=O)N[C@@H]1C[C@H]2CC[C@@H]1O2` (racemic): the Inhibition % was 7.42%.

For `C=CC(=O)N(Cc1ccccn1)C1CC1`, the Inhibition % amounted to 6.59%.

For `OB(O)c1ccccc1OCC1CC1`, the Inhibition % is given as -2.75%.
